{"source": "PubChem BioAssay AID1460", "about": "(National Center for Advancing Translational Sciences (NCATS), 2008)", "note": "In all, about 270,000 compounds went through this assay and about 5,800 (2.1%) were called active. The inconclusive results got no clear call from the source; some entries with a clear call stand among them for comparison. Calls come from the whole dose curve; as a rule, active = well fitted inhibition curve with a large enough effect; inconclusive = small, poorly fitted or top-dose-only effect; inactive = flat fitted curve, though single readings scatter. Potencies of inconclusive entries are doubtful fits and often do not repeat. A structure can be active in one record and inactive in another. % is set by controls: 0 for no effect and ±100 for the full control effect; potency is the fitted concentration of half-maximal effect; tags give direction and shape of the fitted curve.", "data": [{"target": "Microtubule-associated protein tau (Homo sapiens) (UniProt P10636)", "sequence (P10636 whole entry, looked up, the tested form may be a part)": "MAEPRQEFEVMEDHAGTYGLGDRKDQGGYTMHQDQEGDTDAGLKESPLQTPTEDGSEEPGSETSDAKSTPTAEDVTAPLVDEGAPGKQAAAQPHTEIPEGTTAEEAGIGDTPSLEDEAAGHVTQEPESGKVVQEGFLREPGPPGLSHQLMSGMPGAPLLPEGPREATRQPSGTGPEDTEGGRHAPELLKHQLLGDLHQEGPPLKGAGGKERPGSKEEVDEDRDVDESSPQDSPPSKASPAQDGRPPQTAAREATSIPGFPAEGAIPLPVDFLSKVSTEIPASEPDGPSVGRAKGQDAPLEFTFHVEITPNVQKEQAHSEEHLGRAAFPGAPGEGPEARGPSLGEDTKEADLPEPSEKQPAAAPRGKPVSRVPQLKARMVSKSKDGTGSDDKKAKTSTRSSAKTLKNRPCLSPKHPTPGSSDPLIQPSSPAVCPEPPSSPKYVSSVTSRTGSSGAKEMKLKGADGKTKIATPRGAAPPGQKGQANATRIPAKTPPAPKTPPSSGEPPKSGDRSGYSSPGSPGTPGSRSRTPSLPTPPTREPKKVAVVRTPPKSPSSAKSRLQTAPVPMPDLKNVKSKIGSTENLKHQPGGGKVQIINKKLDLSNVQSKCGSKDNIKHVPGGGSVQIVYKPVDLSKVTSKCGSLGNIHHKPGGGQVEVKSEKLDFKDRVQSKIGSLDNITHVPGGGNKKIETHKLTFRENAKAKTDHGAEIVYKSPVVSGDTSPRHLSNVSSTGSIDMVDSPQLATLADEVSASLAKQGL", "experiment": "qHTS for Inhibitors of Tau Fibril Formation, Thioflavin T Binding; note: nearly all actives have a fitted effect of over 55% in size", "settings": "recombinant tau K18 P301L (four-repeat tau fragment), heparin-induced fibrillization, ThT fluorescence; series mostly up to 57.4 µM", "in_short": "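Aggregation was driven by heparin (20 uM final) acting on recombinant tau […] bearing P301L in 100 mM sodium acetate pH 7; fibrils were detected with Thioflavin T.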", "values": [{"smiles": "C=Cc1ccc2c(c1)N(C)C(=C)S2", "Potency": "inconclusive: 31.6 µM [inhibitor, single point]"}, {"smiles": "CC(C)Cn1nnnc1S(=O)(=O)Cc1ccccc1", "Potency": "inactive"}, {"smiles": "COC(=O)CN1C(=O)C(O)(CC(=O)c2ccc(Br)cc2)c2ccccc21", "note": "(stereo unspecified)", "Potency": "inactive"}, {"smiles": "Cc1ccccc1NS(=O)(=O)c1cc(C(=O)Nc2cccc([N+](=O)[O-])c2)ccc1C", "Potency": "inconclusive: 14.1 µM [inhibitor, partial curve]"}, {"smiles": "C/C(=C\\C(=S)Nc1ccccc1)Nc1cccc2ccccc12", "Potency": "inconclusive: 28.2 µM [inhibitor, single point]"}, {"smiles": "CCCCn1cnc2cc(NC(=O)c3cc(OC)c(OC)c(OC)c3)ccc21", "Potency": "inconclusive: 28.2 µM [inhibitor, single point]"}, {"smiles": "COc1cccc([C@@H]2Oc3ccc(Br)cc3C(=O)[C@H]2O)c1", "Potency": "inactive"}, {"smiles": "COc1ccc(CC(=O)N2CC3(C)CC2CC(C)(C)C3)cc1", "note": "(stereo unspecified)", "Potency": "inactive"}, {"smiles": "COc1ccc(-c2csc(C3=C(O)CN(C(C)C)C3=N)n2)cc1OC", "Potency": "inconclusive: 15.8 µM [inhibitor, partial curve]"}, {"smiles": "C=CC1=C(C(=O)O)N2C(=O)C(NC(=O)/C(=N\\O)c3csc(N)n3)C2SC1", "note": "(stereo unspecified)", "Potency": "inconclusive: 1.78 µM [inhibitor, full curve, poor fit]"}, {"smiles": "O=C(NC1CC1)C1=C[C@@H](c2ccc(Br)cc2)C[C@@H](OCc2ccc(CO)cc2)O1", "Potency": "inactive"}, {"smiles": "COc1ccccc1NC(=O)c1ccc(-c2ccc(Br)cc2)o1", "Potency": "inconclusive: 17.8 µM [inhibitor, partial curve]"}, {"smiles": "O=C(CSc1ncc(S(=O)(=O)c2ccc(Br)cc2)c(=O)[nH]1)NCc1ccccc1Cl", "Potency": "inconclusive: 31.6 µM [inhibitor, partial curve]"}, {"smiles": "O=C(CSc1ccc(-c2ccco2)nn1)NCc1ccc2c(c1)OCO2", "Potency": "inconclusive: 14.1 µM [inhibitor, partial curve]"}, {"smiles": "Cc1nnc(SCC(=O)N2c3ccccc3CC2C)[nH]c1=O", "note": "(stereo unspecified)", "Potency": "inactive"}, {"smiles": "Cc1[nH]n(-c2ccccc2)c(=O)c1C(c1cccc([N+](=O)[O-])c1)c1c(C)[nH]n(-c2ccccc2)c1=O", "Potency": "inconclusive: 12.6 µM [inhibitor, partial curve]"}, {"smiles": "CCN1CCN(C(c2ccc(Cl)cc2)c2c(O)cc(C)n(CCOC)c2=O)CC1", "note": "(stereo unspecified)", "Potency": "inconclusive: 39.8 µM [inhibitor, single point]"}, {"smiles": "COc1cc(/C=N/Nc2cc(C)nc(NS(=O)(=O)c3ccc(C)cc3)n2)ccc1O", "Potency": "inconclusive: 14.1 µM [inhibitor, partial curve, poor fit]"}, {"smiles": "NC(=O)c1c(NC(=O)Cn2cc([N+](=O)[O-])cn2)sc2c1CCCC2", "Potency": "inactive"}, {"smiles": "CCCN1C(=O)c2ccc(C(=O)NCc3ccco3)cc2C1=O", "Potency": "inactive"}, {"smiles": "CCOc1ccc(NC(=O)NC(CC)Cn2nnc3ccccc3c2=O)cc1", "note": "(stereo unspecified)", "Potency": "inconclusive: 5.62 µM [inhibitor, full curve, poor fit]"}, {"smiles": "CCOC(=O)CCc1c(C)nc2cc(-c3ccc(F)cc3)[nH]n2c1=O", "Potency": "inconclusive: 44.7 µM [inhibitor, single point]"}, {"smiles": "CCOC(=O)c1ccc(NC(=O)CSc2nc3cccnc3n2C)cc1", "Potency": "inconclusive: 1.41 µM [inhibitor, full curve]"}, {"smiles": "Oc1ccc(/C=N/Nc2nc(-c3cccnc3)nc3ccccc23)c(O)c1", "Potency": "active: 2.24 µM"}, {"smiles": "CC(C)(C)c1cnnn1-c1ccc(C(=O)CCl)cc1", "Potency": "inactive"}, {"smiles": "O=S1(=O)c2ccccc2N=NN1Cc1ccc(Cl)cc1", "Potency": "inconclusive: 31.6 µM [inhibitor, partial curve]"}, {"smiles": "Cn1nnnc1SCC1=C(C(=O)O)N2C(=O)[C@@H](NC(=O)[C@H](O)c3ccccc3)[C@H]2SC1", "Potency": "inconclusive: 11.2 µM [inhibitor, partial curve]"}, {"smiles": "CCOC(=O)c1sc(N=NC2=C(O)CC(C)(C)CC2=O)c(C(=O)OCC)c1C", "Potency": "inconclusive: 2.24 µM [inhibitor, full curve]"}, {"smiles": "COC(=O)CCC(=O)OC1(C)C(=O)C2=CN(CC3CC3)C(c3ccc(OC)cc3)=CC2=C(Br)C1=O", "note": "(stereo unspecified)", "Potency": "active: 11.2 µM"}, {"smiles": "O=c1cc(CN2CCN(c3ccccc3)CC2)c2c(ccc3ccccc32)o1", "Potency": "inconclusive: 20 µM [inhibitor, partial curve]"}, {"smiles": "CCN(CC)c1ccc(NC(=O)c2[nH]c(C)c(C(C)=O)c2C)c(C)c1", "Potency": "inconclusive: 1.58 µM [inhibitor, full curve, poor fit]"}, {"smiles": "CC(C)c1ccc(S(=O)(=O)Nc2cc3c(cc2NCc2ccccc2)n(C)c(=O)n3C)cc1", "Potency": "inconclusive: 14.1 µM [inhibitor, partial curve]"}, {"smiles": "CSc1ccc(NC(=O)Nc2cc(C)ccn2)cc1", "Potency": "inconclusive: 17.8 µM [inhibitor, partial curve]"}, {"smiles": "COc1ccccc1C(=O)N1CCC(c2c[nH]c3ccccc23)(c2c[nH]c3ccccc23)CC1", "Potency": "inactive"}, {"smiles": "COC(=O)C(CSCc1ccccc1)NC(=O)CSc1nc(C)cc(=O)[nH]1", "note": "(stereo unspecified)", "Potency": "inconclusive: 28.2 µM [inhibitor, single point]"}, {"smiles": "Cc1ccc(NC(=O)CSc2nc3ccc(NC(=O)c4cccc(Cl)c4)cc3s2)c(C)c1", "Potency": "inactive"}, {"smiles": "Fc1ccc(-c2nc3n(c2-c2ccncc2)CCS3)cc1", "Potency": "inactive"}, {"smiles": "O=C(Nc1ccc(Cl)cc1)[C@@H]1[C@@H]2C(=O)N(c3ccc4ccccc4c3)C(=O)[C@@H]2[C@H]2C=CC=NN21", "Potency": "inconclusive: 15.8 µM [inhibitor, partial curve]"}, {"smiles": "COc1cc(C2C(C(=O)Nc3ccccc3)=C(C)Nc3nc(SCC(=O)c4ccc(C)cc4)nn32)ccc1O", "note": "(stereo unspecified)", "Potency": "inconclusive: 39.8 µM [activator, single point]"}, {"smiles": "O=C(CSc1nnnn1-c1ccc2c(c1)CCC2)Nc1ccc2c(c1)OCCO2", "Potency": "inconclusive: 10 µM [inhibitor, partial curve]"}, {"smiles": "CC(C)NS(=O)(=O)c1ccc(OCC(=O)N2CCN(c3cccc(Cl)c3)CC2)cc1", "Potency": "inactive"}, {"smiles": "CCOc1ccc(N2CSC3=C(C#N)C(c4ccco4)CC(=O)N3C2)cc1", "note": "(stereo unspecified)", "Potency": "active: 14.1 µM"}, {"smiles": "O=C(Nc1ccc(N2CCOCC2)cc1)C1CC(=O)N(c2ccccc2)C1", "note": "(stereo unspecified)", "Potency": "active: 4.47 µM"}, {"smiles": "CCCC(=O)O[C@]1(C(=O)COC(C)=O)CC[C@H]2[C@@H]3C[C@H](F)C4=CC(=O)C=C[C@]4(C)[C@@]3(F)[C@@H](O)C[C@@]21C", "Potency": "inactive"}, {"smiles": "COc1ccc(CCNc2nc(-c3sc(N)nc3C)cs2)cc1OC", "Potency": "active: 14.1 µM"}, {"smiles": "CCc1ccccc1N(C)C(=O)c1cc2c(s1)-c1c(C)cccc1OC2", "Potency": "inconclusive: 12.6 µM [inhibitor, partial curve]"}, {"smiles": "COc1cccc(-c2nnc3sc(-c4ccco4)nn23)c1", "Potency": "inactive"}, {"smiles": "COC(=O)[C@@H]1CC[C@H](C)[C@@H](c2ccc(C)cc2)N1C(=O)c1ccc(/C=N\\OC[C@@H](C)[C@H](OCc2ccccc2)C(C)C)cc1", "activity, negative = inhibition": "inactive: -8.63% [at 11.5 µM]"}, {"smiles": "Cc1ccccc1NC(=O)c1cc(N)ccc1N1CCCCC1", "Potency": "inactive"}, {"smiles": "CC(NC(=O)CCC(=O)NC(C)C1COc2ccccc2O1)C1COc2ccccc2O1", "note": "(stereo unspecified)", "Potency": "inconclusive: 5.62 µM [inhibitor, partial curve]"}, {"smiles": "COc1ccc(C(=O)c2cn(Cc3ccc(F)cc3)c3c(F)cc(F)cc3c2=O)cc1", "Potency": "inactive"}, {"smiles": "C/C(CCc1oc2ccc(Br)cc2c1-c1ccc(C)o1)=N/O", "Potency": "inconclusive: 15.8 µM [inhibitor, partial curve]"}, {"smiles": "Fc1ccc(-c2nnc(CN3CCN(c4ccccn4)CC3)o2)cc1", "Potency": "inconclusive: 44.7 µM [inhibitor, single point]"}, {"smiles": "C=CCn1c(SCC(=O)N2CCN(c3ccccc3)CC2)nnc1-c1ccco1", "Potency": "inactive"}, {"smiles": "O=C(OCc1ccc(F)cc1)c1ccc2c(c1)-c1ccccc1C2=O", "Potency": "inconclusive: 5.62 µM [inhibitor, full curve]"}, {"smiles": "Cc1ccc(C)c(OCCOCCN2CC(C)OC(C)C2)c1C", "note": "(stereo unspecified)", "Potency": "inactive"}, {"smiles": "CCCn1c(CCC(=O)O)ccc1-c1ccc(OC)cc1", "Potency": "inconclusive: 14.1 µM [inhibitor, partial curve]"}, {"smiles": "O=C(N/N=C/c1ccc(-c2ccc([N+](=O)[O-])cc2)o1)C(O)c1ccccc1", "note": "(stereo unspecified)", "Potency": "active: 15.8 µM"}, {"smiles": "CCN(CC)Cc1cc2[nH]c3c4ccc(Cl)cc4ncc3c2cc1OC", "Potency": "inconclusive: 10 µM [activator, partial curve]"}, {"smiles": "CC(=O)Nc1ccc(-c2ccc(NC(C)=O)cc2)cc1", "Potency": "inactive"}, {"smiles": "O=C(Nc1nnc(SCc2ccc(F)cc2)s1)C1CC(=O)N(Cc2ccccc2)C1", "note": "(stereo unspecified)", "Potency": "inactive"}, {"smiles": "O=C(/C=C/Nc1ccc(F)c(F)c1)c1ccc(Br)cc1", "Potency": "inconclusive: 17.8 µM [inhibitor, single point]"}, {"smiles": "COc1ccc(C(O)CNc2ccc(C)cc2)cc1", "note": "(stereo unspecified)", "Potency": "inconclusive: 8.91 µM [inhibitor, partial curve]"}, {"smiles": "C=CC(=O)N=c1sc2ccccc2n1-c1ccccc1", "Potency": "inactive"}, {"smiles": "Cc1ccc(CN(Cc2cccn2-c2nnc(N3CCCC3=O)s2)C(=O)Nc2cc(C)cc(C)c2)cc1", "Potency": "inactive"}, {"smiles": "O=C(C1CCCN(S(=O)(=O)c2cccs2)C1)N1CCN(c2ccccc2F)CC1", "note": "(stereo unspecified)", "Potency": "inactive"}, {"smiles": "CCc1nc(Sc2nc(C)cc(C)n2)c2oc3ccccc3c2n1", "Potency": "inconclusive: 20 µM [inhibitor, partial curve]"}, {"smiles": "COc1ccc(Nc2nc(N)nc(CSc3nnc(C)s3)n2)cc1", "Potency": "inactive"}, {"smiles": "CCCN1CCC(=O)N([C@H](CSc2ccc(C)cc2)c2ccccc2)CC1", "Potency": "inconclusive: 15.8 µM [inhibitor, single point]"}, {"smiles": "Cc1ccc(C)n1-c1ccc(C(=O)NN)s1", "Potency": "inconclusive: 22.4 µM [inhibitor, single point]"}, {"smiles": "CCOC(=O)COc1ccc2cc(C(=O)OCC)c(=O)oc2c1", "Potency": "inconclusive: 10 µM [inhibitor, partial curve]"}]}]}
